# In all, about 420,000 compounds went through this assay and about 64,000 (15%) were called active. Inconclusive results, whose numbers are uncertain, are shown with a selection of clear calls. The call rests on the fitted dose curve; in most records, active means well fitted inhibition curve with a large enough effect; inconclusive means small, poorly fitted or top-dose-only effect; inactive means flat fitted curve, though single readings scatter. Potencies of inconclusive entries are left out as doubtful fits.
# Experiment: qHTS for Inhibitors of human tyrosyl-DNA phosphodiesterase 1 (TDP1): qHTS in cells in absence of CPT; further: nearly all actives have a fitted effect of over 55% in size
# Details: DT40 Tdp1-/- hTDP1 cells, no CPT, ATP luminescence, 48 h; activity change, negative = growth inhibition: at 46.2 µM (top of the series)
# Method in brief: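 Compound effects on proliferation are scored in DT40 Tdp1-/-;hTDP1 cells in the absence of CPT. ATP levels (CellTiter-Glo luminescence) are recorded after a ≥48 hr, 37 °C incubation.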
# On the % scale 0 is the no-effect control and ±100 the full control effect; potency means the concentration at half of the fitted maximal effect; tags describe the fitted curve by direction and shape.
SMILES,Potency,"activity change, negative = growth inhibition"
O=C(C[C@H]1C/C=C\C[C@@H](Cc2ccc(F)cc2)C(=O)O[C@@H](c2ccccc2)CNC1=O)NCCO,"inconclusive [inhibitor, single point]",
COc1ccccc1OCC(=O)N(Cc1nc(-c2ccccc2)no1)C(C)C,"inconclusive [inhibitor, partial curve, poor fit]",
CS(=O)(=O)Nc1cccc(C2=NN(C(=O)c3cccc([N+](=O)[O-])c3)C(c3cccs3)C2)c1 (stereo not given),"inconclusive [inhibitor, single point]",
Nc1nc(NCC2CCCO2)nc(Nc2ccccc2)c1[N+](=O)[O-] (stereo not given),"inconclusive [inhibitor, single point]",
O=c1c(-c2ccccc2)nc2cnc(N3CCNCC3)nc2n1-c1ccccc1,"inconclusive [inhibitor, single point]",
Cn1c(N)c(C(=O)COC(=O)Cc2cccc(C(F)(F)F)c2)c(=O)n(C)c1=O,"inconclusive [inhibitor, single point]",
CCCCNC(=O)c1ccccc1SCC(=O)NC1CCCCCCC1,,inactive: -1.16%
CC(C)[C@H](NC(=O)[C@@H]1CSC2c3ccccc3C(=O)N21)C(=O)NC1CCCCC1 (stereo not given in full),"inconclusive [inhibitor, single point]",
Cn1c(=O)n(C)c2cc(NC(=O)CSc3nnc(-c4ccccc4O)n3-c3ccccc3)ccc21,"inconclusive [inhibitor, single point]",
CCOC(=O)C1CCN(C(=O)CS(=O)(=O)Cc2nc(-c3ccccc3Cl)oc2C)CC1,"inconclusive [inhibitor, single point]",
O=C(COc1ccc(S(=O)(=O)NC2CCCCC2)cc1)NC1CCCC1,,inactive: -28.4%
Cc1cc(C(=O)COc2ccc(Br)cc2F)c(C)n1CC1CCCO1 (stereo not given),"inconclusive [inhibitor, single point]",
CSc1ccc(/C=C/C(=O)OCC(=O)NC2CCCCCC2)cc1,"inconclusive [inhibitor, single point]",
COc1ccc(-c2cc(C(=O)Nc3cc(C)on3)no2)cc1OC,,inactive: -0.239%
Cc1cc(C)nc(SCC(=O)Nc2ccnc3ccccc23)n1,active: 0.651 µM,
COc1cc(/C=N/NC(=S)NCCc2ccccc2)cc(OC)c1OC,active: 16.4 µM,
Cc1cc(C)c(-c2cc(C(=O)Nc3cc(C)ccc3C)[nH]n2)c(O)c1,,inconclusive: -31.2% [inhibitor]
O=C(Nc1ncc(Cc2ccccc2Cl)s1)C1CCCO1 (stereo not given),"inconclusive [inhibitor, partial curve]",
CCOC(=O)N1CCN(c2c(NCc3ccc(F)cc3)c(=O)c2=O)CC1,active: 3.26 µM,
CCOc1ccc(/C=C(/C#N)c2nnc(N3CCOCC3)n2-c2ccccc2)cc1OC,"inconclusive [inhibitor, single point]",
CC1=C(C(=O)N2CCOCC2)CC(CC(=O)NCCN2CCOCC2)C(=O)N1CCC1=CCCCC1 (stereo not given),"inconclusive [inhibitor, full curve, poor fit]",
CC(CNC(=O)C1CCN(S(=O)(=O)c2ccc3c(ccn3C)c2)CC1)c1ccccc1 (stereo not given),,inactive: -4.43%
O=C(c1ccccn1)N(Cc1cccs1)C1(C(=O)NC2CCCCC2)CCCCC1,"inconclusive [inhibitor, partial curve]",
CSc1ccc(CN2CCN(Cc3ccccc3)C(CCO)C2)cc1 (stereo not given),"inconclusive [inhibitor, single point]",

SMILES,Potency,"activity change, negative = growth inhibition"
CCOc1ccc(NC(=O)C2CCN(S(=O)(=O)c3c(C)n[nH]c3C)CC2)cc1,"inconclusive [inhibitor, partial curve, poor fit]",
CC(=O)N[C@@H]1C=C[C@@H](CC(=O)NCc2ccc(Cl)cc2)O[C@@H]1CO,,inactive: -4.52%
CCc1ccc(-c2nc(CS(=O)CC(=O)NCCCN3CCC(C)CC3)c(C)o2)cc1 (stereo not given),"inconclusive [inhibitor, single point]",
CN(C)C(CNS(=O)(=O)c1ccc2ccccc2c1)c1ccccc1 (stereo not given),"inconclusive [inhibitor, single point]",
COc1ccc2[nH]c(C)c(CCN(Cc3cccs3)C(=S)Nc3cccc(F)c3)c2c1,"inconclusive [inhibitor, single point]",
COc1ccc(C2NCCCC2c2ccccc2)cc1 (stereo not given),"inconclusive [inhibitor, single point]",
CCN(CC)CCn1c(-c2ccccc2)csc1=Nc1ccccc1,active: 16.4 µM,
O=c1oc2ccccc2c(NC(c2ccccc2)c2ccccc2)c1[N+](=O)[O-],"inconclusive [inhibitor, single point]",
CCCC(=O)c1cc(O)c(O)cc1O,active: 17.2 µM,
COc1cc2c(C#N)c(N3CCOCC3)nc(N)c2c(N)n1,active: 23.1 µM,
CCN1C(=O)C(CC(=O)Nc2ccc(OC)cc2)N(Cc2ccc3c(c2)OCO3)C1=S (stereo not given),,inactive: -11.6%
COc1cc(S(=O)(=O)Nc2ccc(C)cc2)ccc1N=Cc1c(C)[nH]n(-c2ccccc2)c1=O,"inconclusive [inhibitor, single point]",
O=C(Nc1ccc(Cl)c(S(=O)(=O)N2CCOCC2)c1)c1ccc(Cl)nc1,active: 18.4 µM,
O=C(CCNC(=O)c1ccccc1Cl)Nc1cccc(C(F)(F)F)c1,,inactive: -18.2%
CN(C)/C=C1/C=C(c2ccccc2)OC1=O,"inconclusive [inhibitor, single point]",
O=C1CC(c2cccc(O)c2)c2cc3c(cc2N1)OCO3 (stereo not given),,inactive: -12.7%
Cc1cc2nc(C(C)(C)C)c(CC3CCCCC3)n2c(C)c1Br,"inconclusive [inhibitor, single point]",
Cc1ccc(OCCn2c(-c3ccc(Br)cc3)nc3ccccc3c2=O)cc1C,,inconclusive: -11.2% [inhibitor]
Cc1ccc(NC(=O)NCCSc2ccc(C)cc2)cc1,,inactive: -15.8%
O=C1/C(=C/c2ccc([N+](=O)[O-])cc2)Oc2cc(O)ccc21,active: 7.31 µM,
Cc1ccc(CN(C)C(=O)CCNC(=O)c2ccc(Cl)cc2)o1,,inconclusive: -30.6% [inhibitor]
CC(C)=CC/C=C1\CCC(C(=O)O)C(C(=O)O)C1 (stereo not given),active: 0.0291 µM,
COCCn1nnnc1C(c1ccc(C)cc1)N1CCN(Cc2ccc3c(c2)OCO3)CC1 (stereo not given),"inconclusive [inhibitor, single point]",
CC(C)C(C)/C=C/C(C)C1CCC2C3=CC=C4CC(O)CCC4(C)C3CCC21C (stereo not given),,inactive: -19.2%

SMILES,Potency,"activity change, negative = growth inhibition"
CCNc1ncc2nc(CCc3ccccc3)c(=O)n(C3CC3)c2n1,,inactive: -19.3%
C[C@H](NC(=O)c1nc[nH]c1C(=O)NCC(=O)OCc1ccccc1)C(=O)OCc1ccccc1,"inconclusive [inhibitor, single point]",
COc1ccccc1-c1nnc(NC(=O)C(C)SC2=NCCS2)s1 (stereo not given),"inconclusive [inhibitor, single point]",
COc1ccccc1CCNC(=O)C(=O)c1cn(CC(=O)N2CCCC2)c2ccccc12,"inconclusive [inhibitor, partial curve, poor fit]",
O=C(COc1ccccc1[N+](=O)[O-])N1CCC(c2nc3ccccc3o2)CC1,active: 18.4 µM,
C#CCN(C[C@@H]1[C@@H](OC(=O)NCC2CCCCC2)[C@@H](OC(=O)NCC2CCCCC2)Cn2c(=O)n(CCCCCC)c(=O)n21)S(=O)(=O)c1ccc(C)cc1,active: 6.51 µM,
N=c1sccn1CC(=O)Nc1ccccc1Sc1ccccc1,"inconclusive [inhibitor, single point]",
CCOC(=O)c1csc(NC(=O)Nc2cccc(Cl)c2)n1,"inconclusive [inhibitor, partial curve]",
Cc1c(CC(=O)NCCc2ccccc2F)c(=O)oc2cc(O)c(Cl)cc12,,inactive: -19.9%
Cc1cc(C(=O)Nc2ccc3nc(C)sc3c2)c2ccccc2n1,,inconclusive: -34.8% [inhibitor]
CC(C)(C)c1ccc(C(=O)OCC(=O)N2CCC(c3ccccc3)=N2)cc1,"inconclusive [inhibitor, single point]",
CC1(C(=O)NS(=O)(=O)Cc2ccccc2C(F)(F)F)CCN1C(=O)c1cccc(F)c1 (stereo not given),,inactive: 0.0276%
CCOC(=O)CN1C(c2ccccc2O)Nc2ccc(Br)cc2C1c1ccccc1 (stereo not given),"inconclusive [inhibitor, single point]",
CCOc1cc2sc(N3CCC(C(=O)NCCCN4CCCC4=O)CC3)nc2cc1Br,"inconclusive [inhibitor, partial curve, poor fit]",
CC[C@H](CO)Oc1cc(NCc2cccc(N)c2)c2ncn(C(C)C)c2c1,"inconclusive [inhibitor, single point]",
Cc1ccc(NC(=O)c2c(C)oc3ccc(O)c(CN4CCCCCC4)c23)cc1,active: 16.4 µM,
CCOc1ccc(N=C2NC(=O)CS2)cc1,,inactive: 9.39%
CCn1cc(C(=O)NCC(=O)OC)c2cc(OC)c(OC)cc2c1=O,,inactive: -1.55%
CC(C)S(=O)(=O)c1oc(-c2cccs2)nc1S(=O)(=O)c1ccc(F)cc1,active: 0.461 µM,
O=C(NCC1CCCO1)c1ccc(Cl)c(NS(=O)(=O)c2ccc(F)cc2)c1 (stereo not given),,inactive: -13.6%
Cc1ccc(-n2ncc3c(N(CC(C)C)CC(C)C)ncnc32)c(C)c1,"inconclusive [inhibitor, single point]",
CC1CCCC(NC(=O)COC(=O)C2=COCCO2)C1C (stereo not given),,inconclusive: -12.9% [inhibitor]

# — PubChem BioAssay AID686978 (National Center for Advancing Translational Sciences (NCATS), 2013)
